Laboratory results reported in patent US20210395323A1 (UNIVERSIT T STUTTGART, published 2021).

Biological target: T1, human TNFR2-Fc fusion protein (human, UniProt P20333 23-257)
T1 construct: also called huTNFR2-Fc; huTNFR2
T1 sequence (looked up): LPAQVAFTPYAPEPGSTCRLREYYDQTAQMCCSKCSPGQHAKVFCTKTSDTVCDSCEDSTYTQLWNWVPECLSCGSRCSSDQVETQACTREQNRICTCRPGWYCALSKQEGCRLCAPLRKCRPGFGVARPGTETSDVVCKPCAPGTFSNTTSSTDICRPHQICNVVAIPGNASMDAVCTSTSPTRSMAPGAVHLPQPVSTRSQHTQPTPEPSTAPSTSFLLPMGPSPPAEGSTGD
Assay: ELISA, huTNFR2-Fc coated at 1 µg/ml, bound protein detected with anti-TNF F6C5
Procedure: ELISA plates (Greiner, Frickenhausen, Germany) were coated with huTNFR1-Fc, mTNFR1-Fc, huTNFR2-Fc or mTNFR2-Fc fusion proteins at 1 μg/ml in PBS and incubated at 4° C. overnight. Residual binding sites were blocked with 2% skim milk powder in PBS at RT for 2 hours. ScTNFR2 and the complexes were diluted in 2% skim milk powder in PBS and added at concentrations in the range of 10⁻³ to 10 nM and incubated for 1 hour at RT. Between each step, non-bound proteins were removed by washing 4 times with 0.005% Tween-20 in PBS.
Bound proteins were detected with mouse monoclonal antibodies to TNF (clone F6C5; 1 μg/ml; incubation for 1 hour at RT) and HRP-conjugated anti-mouse IgG antibodies (diluted 1:10000; incubation for 1 hour at RT), followed by incubation with tetramethylbenzidine (TMB) substrate solution. Reaction was stopped by addition of 1 M H₂SO₄ and the absorbance at 450 nm was determined with a Multiskan FC absorbance reader (Thermo Scientific, Karlsruhe, Germany) and data were analyzed using the software Microsoft Excel and GraphPad Prism 4 (GraphPad, La Jolla, Calif.) (FIG. 5). In Table 3, the calculated EC₅₀ values for the binding of TNF, scTNFR2 and the complexes to immobilized huTNFR2 and mTNFR2 based on the ELISA assay are summarized.

EC50: 0.554 nM
B1: human single-chain TNF variant (D143N/A145R, scTNFR2) (ligand)
chain: [about 150 residues omitted]GGGGSSSRTPSDKPVAHVVANPQAEGQLQWLNRRANALLANGVELRDNQLVVPSEGLYLIYSQVLFKGQGCPSTHVLLTHTISRIAVSYQTKVNLLSAIKSPCQRETPEGAEAKPWYEPIYLGGVFQLEKGDRLSAEINRPDYLNFRESGQVYFGIIALGGGGSSSRTPSDKPVAHVVANPQAEGQLQWLNRRANALLANGVELRDNQLVVPSEGLYLIYSQVLFKGQGCPSTHVLLTHTISRIAVSYQTKVNLLSAIKSPCQRETPEGAEAKPWYEPIYLGGVFQLEKGDRLSAEINRPDYLNFRESGQVYFGIIAL
notes: Trivalent single chain; also called TNFR2-selective human TNF variant; trivalent scTNFR2
